Data published in publication PMC6919601, “Identification of Plasmodium dipeptidyl aminopeptidase allosteric inhibitors by high throughput screening” (PLoS ONE, 2019).
Among all 110,000 compounds or so, about 230 (0.21%) showed an effect of 50% or more. The list shows a part of the results.

target: DPAP1 (Plasmodium falciparum, UniProt Q8IIJ9); test: primary screen, percent inhibition; read by cleavage of a fluorogenic dipeptide substrate; higher = more effect of the substance; set-up: species or system P. falciparum D10 trophozoite lysates; single well
Sequence (Q8IIJ9 whole entry, looked up): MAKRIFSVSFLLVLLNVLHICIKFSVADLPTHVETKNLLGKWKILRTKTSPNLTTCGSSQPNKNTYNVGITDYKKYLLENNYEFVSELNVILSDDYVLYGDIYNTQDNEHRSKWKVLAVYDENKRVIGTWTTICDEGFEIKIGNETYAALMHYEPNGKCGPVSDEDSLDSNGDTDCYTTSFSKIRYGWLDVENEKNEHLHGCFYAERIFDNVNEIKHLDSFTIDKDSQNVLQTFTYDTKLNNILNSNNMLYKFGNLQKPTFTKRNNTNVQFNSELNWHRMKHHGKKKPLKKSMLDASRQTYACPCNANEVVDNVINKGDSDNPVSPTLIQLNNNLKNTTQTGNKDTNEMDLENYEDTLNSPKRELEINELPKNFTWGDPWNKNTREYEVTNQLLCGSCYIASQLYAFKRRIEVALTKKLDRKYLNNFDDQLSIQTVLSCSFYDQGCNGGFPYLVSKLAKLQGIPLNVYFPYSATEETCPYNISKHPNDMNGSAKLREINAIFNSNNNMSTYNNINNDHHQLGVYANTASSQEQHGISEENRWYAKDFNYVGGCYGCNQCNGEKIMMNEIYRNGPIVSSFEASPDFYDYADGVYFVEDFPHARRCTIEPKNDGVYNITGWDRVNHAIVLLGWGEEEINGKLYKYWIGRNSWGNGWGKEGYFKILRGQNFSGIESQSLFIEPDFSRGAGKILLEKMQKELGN
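Note: 30 min substrate incubation versus DMSO and 10 µM JCP410 controls.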

SMILES	% Inhibition @ 10 uM [%]
O=C(C1=C(O)C(=O)N(CC2CCCO2)C1c1ccccc1)c1ccc2c(c1)OCCO2 (stereo not shown)	-0.473
COCCCNC(=O)c1cnn2c(C(F)(F)F)cc(-c3cccs3)nc12	-2.26
CC(C)N1CCN(c2ccc(O)cc2)CC1	0.993
Cc1cccc(-c2noc(COc3ccc(Br)cc3Cl)n2)c1	4.85
O=C(O/N=C1\CCCc2oc3c(c21)CCCC3)c1ccc(Cl)cc1	-11.6
CC(C)CC(=O)Nc1ccc(-c2nc(O)c3ccccc3n2)cc1	0.331
O=C(NCc1ccc(F)cc1)c1ccc(CN2CC(=O)N3CCCCC3C2=O)cc1 (stereo not shown)	-2.5
CCCNC(=O)C1Sc2nnc(C)n2NC1c1ccc(OC)c(Cl)c1 (stereo not shown)	1.72
NC(=O)c1sc2nc(N3CCOCC3)c3c(c2c1N)CCCC3	50.2
Cc1ccc(OCCCN2CCCC2)c(C)c1	-3.94
COc1ccc(OC)c(C2NC(=O)NC(C)=C2C(=O)OC(C(F)(F)F)C(F)(F)F)c1 (stereo not shown)	-2.87
CCOc1ccccc1C1C(C(=O)Nc2cccnc2)=C(C)Nc2nc(-c3ccc(OC)cc3)nn21 (stereo not shown)	-1.47
CCc1ccc(Oc2nc3ccccn3c(=O)c2/C=C(\C#N)C(=O)NC2CCS(=O)(=O)C2)cc1 (stereo not shown)	-4
CN(C)c1ccc(NC(=O)C2C3C=CC(O3)C2C(=O)O)cc1 (stereo not shown)	-13.5
CCOc1ccccc1CN1CCN(C/C=C/c2ccccc2)CC1	0.605
O=C1c2cccc3cccc(c23)C(=O)N1CCOCc1ccccc1	-1.32
CCC(C)n1ncn(-c2ccc(N3CCN(c4ccc(OC)cc4)CC3)cc2)c1=O (stereo not shown)	-1.37
O=C1C(c2ccc(F)cc2)N(CCc2ccccc2Cl)C(=O)CN1C1CCCCC1 (stereo not shown)	1.27
CCCn1c2c(c(O)c(C(=O)Nc3cc(C)ccn3)c1=O)CCCC2	-0.458
O=C(c1cc2ccc3cccnc3c2[nH]1)N1CCc2ccccc2C1	-2.9
COc1ccc(Cl)cc1NC(=O)CN(Cc1ccc(C)cc1)S(=O)(=O)c1ccccc1	0.291
Cc1ccc2[nH]c3c(c2c1)CCC(CN(C)C)C3=O (stereo not shown)	-0.693
COC(=O)C1=C(C)NC(=O)/C1=C\c1cccc(OC)c1	-2.2
Cc1ccc(C2=NC3(CCN(C(=O)c4ccc(C(C)(C)C)cc4)CC3)NC2=O)cc1C	5.85
CCN1CCN(C(=O)Cn2cc(S(=O)(=O)NC)c(S(=O)(=O)NC)c2)CC1	-1.59

SMILES	% Inhibition @ 10 uM [%]
Cc1ccc2[nH]c(C)c(CCN)c2c1	-7.42
COc1ccccc1C(=O)Nc1cc(C)cc(C)c1	44
COC(=O)CCNS(=O)(=O)c1ccc([N+](=O)[O-])cc1	3.25
COc1ccc(C=C2C(=O)NC(=S)NC2=O)cc1OC	-6.22
Cc1oc(-c2ccccc2F)nc1CSCC(=O)NCCN1CCCC1	2.16
CCOC(=O)c1c(NC(=O)C(C)(C)C)sc2c1CCCC2=O	2.78
COc1cc2c(cc1OC)CN(C1CN3CCC1CC3)CC2 (stereo not shown)	0.217
Cc1ccc(CNC(=O)c2ccc3c(c2)ncn3C2CCCC2)cc1	-3.12
CC(=O)NS(=O)(=O)c1ccc(NC(=O)CCC2CCCC2)cc1	2.08
CC(C)NC(=O)c1cc([N+](=O)[O-])ccc1Cl	0.467
CCOc1ccccc1-c1cc(C(=O)OC)c2ccccc2n1	-1.1
CCOC(=O)N1CCN(S(=O)(=O)N2CCCC(C(=O)NCc3ccc4c(c3)OCO4)C2)CC1 (stereo not shown)	-6.88
O=C(C1CCN(S(=O)(=O)c2c[nH]cn2)CC1)N1CCn2c1nc1ccccc12	-0.719
O=C(CCSc1ccc(Cl)cc1)Nc1ccc(S(=O)(=O)N2CCCC2)cc1	3.8
N#CCNC(=O)[C@H](CSCc1ccc(Cl)cc1)NC(=O)c1ccccc1	-3.49
O=c1c2c(c1=O)C1(SCCCS1)c1ccccc1O2	0.746
CCC(C)NS(=O)(=O)c1ccc(OCC(=O)Nc2ccc3c(c2)OCCO3)cc1 (stereo not shown)	1.17
Cc1ccc(N2C(=O)CC(N3CCc4ccccc4C3)C2=O)cc1C (stereo not shown)	3.91
CN(CCCNC(=O)Cn1nc(Cc2cccnc2)c2ccccc2c1=O)Cc1ccccc1	-3.14
FC(F)Oc1ccccc1C1C=C(c2cccnc2)Nc2ncnn21 (stereo not shown)	-5.05
CCCN1CCC(NCc2ccc(Cl)cc2)CC1	-1.5
COc1ccc(/C=C2\SC(=O)N(CC(=O)Nc3cccnc3)C2=O)cc1OC	-8.05
Cc1cccc(OCC(=O)N2CCN(Cc3ccccc3Br)CC2)c1	1.84
O=C(NCC1CCCO1)c1[nH]c2ccccc2c1Sc1ccc(Cl)cc1 (stereo not shown)	-6.82
